Measured values reported in PubChem BioAssay AID488969 (Vanderbilt High Throughput Screening Facility, 2010).
In all, about 110,000 compounds were measured (“z-score”: median about -0.1, highest 2% from about 2 on). This is one part of the list. Calls of active or inactive are those of the source.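 Rule for the calls: active = z-score in the third read window above 3 or below -3; inactive = the rest.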

Each molecule was assayed against Metabotropic glutamate receptor 8 (Rattus norvegicus) (UniProt P70579) (assay: rat mGluR8 modulators via GIRK flux, primary screen, cell-based, thallium flux, HTS (AID 488969)). Details: HEK293 rat mGluR8, GIRK (G protein-gated inwardly rectifying potassium channel) thallium flux, FluoZin2; at 10 µM; stronger effect = higher value; submaximal glutamate (EC20) added with thallium.
Sequence of UniProt P70579 (P70579 whole entry, looked up): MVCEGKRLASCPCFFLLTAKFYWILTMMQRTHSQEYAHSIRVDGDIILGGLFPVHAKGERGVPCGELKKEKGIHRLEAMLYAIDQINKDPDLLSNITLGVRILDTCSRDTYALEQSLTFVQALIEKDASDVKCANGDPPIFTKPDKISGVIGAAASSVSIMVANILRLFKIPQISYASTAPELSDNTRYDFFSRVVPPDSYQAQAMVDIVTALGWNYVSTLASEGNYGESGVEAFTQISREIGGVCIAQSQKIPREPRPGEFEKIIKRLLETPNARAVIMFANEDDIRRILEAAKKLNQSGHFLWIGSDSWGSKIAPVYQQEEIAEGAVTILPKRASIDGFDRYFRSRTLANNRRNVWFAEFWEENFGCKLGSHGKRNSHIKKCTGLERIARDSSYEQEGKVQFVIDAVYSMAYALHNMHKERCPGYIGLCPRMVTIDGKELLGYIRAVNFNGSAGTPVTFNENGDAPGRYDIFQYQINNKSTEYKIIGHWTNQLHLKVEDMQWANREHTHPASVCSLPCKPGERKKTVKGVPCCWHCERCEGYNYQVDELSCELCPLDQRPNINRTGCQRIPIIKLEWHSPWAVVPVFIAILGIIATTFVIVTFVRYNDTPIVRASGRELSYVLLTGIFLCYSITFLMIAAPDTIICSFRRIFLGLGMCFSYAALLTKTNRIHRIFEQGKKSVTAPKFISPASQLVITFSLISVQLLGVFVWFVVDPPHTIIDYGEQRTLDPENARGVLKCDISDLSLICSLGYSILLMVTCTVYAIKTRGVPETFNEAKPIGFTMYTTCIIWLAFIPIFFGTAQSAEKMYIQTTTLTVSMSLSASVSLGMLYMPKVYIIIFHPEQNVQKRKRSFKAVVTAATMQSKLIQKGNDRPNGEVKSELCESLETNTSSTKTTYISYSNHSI
Work on `Cc1ccc2ncccc2c1NS(=O)(=O)c1ccccc1` yielded a z-score of -0.246. Work on `CSCC[C@H](NC(=O)OC(C)(C)C)C(=O)N1CCC(C(=O)N[C@@H](C)C(=O)O)CC1` yielded a z-score of -0.096. Molecule `CC(=O)c1ccc(OC(C)C)c(CC(C(N)=O)C(N)=O)c1` has a z-score of 0.19. Molecule `O=C(c1cc2ccccc2o1)c1cccs1` has a z-score of -0.195. With `N#Cc1cc(-c2ccc(Cl)cc2)cn(Cc2c(Cl)cccc2Cl)c1=O` the z-score was -0.0556. With `CCOc1ccc(C(=O)Nc2ccc(NC(=O)c3ccco3)c(Cl)c2)cc1Cl` the z-score was 0.223. Work on `CC(OC(=O)c1ccccc1Br)C(=O)Nc1nc(-c2cccc([N+](=O)[O-])c2)cs1` (stereo not drawn) yielded a z-score of -0.102. For `CCOC(=O)/C=C1\Nc2ccccc2SC1=O`, the z-score was -0.188. With `O=c1cc(N2CCOCC2)c2ccccc2o1` the z-score was 0.0864. In the case of `COc1ccc(NS(=O)(=O)c2ccc(OCC(=O)N3CCCC3)cc2)cc1`, the z-score is reported as -0.41. In the case of `O=C(CCCN1C(=O)/C(=C/c2ccco2)SC1=S)Nc1ccccc1`, the z-score is reported as 0.296. Work on `CC(=C/c1ccc(C(C)C)cc1)/C=N/NC(=O)CSc1ccccn1` yielded a z-score of -0.28. `COc1ccc(C(C)NC(=O)c2ccoc2C)cc1OC` (stereo not drawn) gave a z-score of 0.298. `O=C(C[n+]1ccc(C(=O)N/N=C/c2ccc(Cl)cc2Cl)cc1)c1ccccc1` gave a z-score of -0.274. `Cc1c(NS(=O)(=O)c2cccc(C(=O)NCc3ccncc3)c2)c(=O)n(-c2ccccc2)n1C` showed a z-score of 0.136. Molecule `O=S(=O)(NC1CCCCC1Nc1ccccc1)c1ccccc1` (stereo not drawn) has a z-score of -0.0931. Work on `Cc1cc2nc(C)n(CCCNC(=O)Nc3ccc(C#N)cc3)c2cc1C` yielded a z-score of -0.713. For `Cc1nnc(SCC(=O)Nc2ccccc2NC(=O)CSc2nnc(C)s2)s1`, the z-score was -0.284. `O=C(CCn1c(=O)sc2ccccc21)NC1=NCCS1` showed a z-score of -0.116. `CCOCC(=O)Nc1cc(C(=O)Nc2ccccc2)ccc1Cl` showed a z-score of -0.272. In the case of `CN(C(=O)c1ccccn1)c1nnc(-c2cccnc2)s1`, the z-score is reported as 0.281. In the case of `O=C(NC12CC3CC(CC(C3)C1)C2)c1ccc(COc2ccc(Cl)cc2[N+](=O)[O-])o1`, the z-score is reported as -0.187. With `FC(F)(F)c1cc(C(F)(F)F)c2ccc(N3CCN(c4ccccc4)CC3)nc2n1` the z-score was 0.0521. With `O=C(COc1ccc2ccccc2c1)NCC(=O)N/N=C/c1ccco1` the z-score was -0.0967. With `COc1ccc(C(=O)N(NC(=O)Oc2ccccc2)C(C)(C)C)cc1` the z-score was 0.485. `CCOc1ccc(-n2c(SCc3ccc([N+](=O)[O-])cc3)nnc2-c2ccccc2)cc1` was tested, and the z-score was -0.0627. For `COC(=O)CC1=C(C(=O)OC)C(c2ccncc2)C(C#N)=C(N)O1` (stereo not drawn), the z-score was 0.588. In the case of `O=C(Nc1ccc(Cl)cc1C(=O)NCCN1CCOCC1)c1ccco1`, the z-score is reported as 0.442. `CC(=O)c1cccc(NC(=O)CN(C2CCCCC2)S(C)(=O)=O)c1` showed a z-score of 0.131. `COc1ccc(C(CC(=O)O)NC(=O)c2sc3ccccc3c2Cl)cc1` (stereo not drawn) gave a z-score of -0.476. `Cc1nc2ccccc2c(=O)n1NC(=O)/C=C/c1ccc(Br)cc1` showed a z-score of 0.016. In the case of `COc1ccc(CCn2c(C(C)C)nc3c(c(=O)c4ccccc4n3C)c2=O)cc1`, the z-score is reported as -0.648. With `CSc1ccc(CNc2cccc3ccccc23)cc1` the z-score was -0.0822. Work on `CC(C)C(=O)Nc1cccc(C(=O)Nc2ccccc2C(=O)O)c1` yielded a z-score of -1.02. With `COc1ccccc1-c1c(C)nn2c(N3CCN(Cc4ccccc4)CC3)cc(C)nc12` the z-score was 0.352. With `CCOC(=O)C1=C(c2ccccc2)Nc2ncnn2C1c1ccccn1` (stereo not drawn) the z-score was -0.761. In the case of `CC(C)(C)n1nnnc1C(c1cccnc1)N(Cc1ccccc1)Cc1ccco1` (stereo not drawn), the z-score is reported as -0.411. In the case of `O=C(NCCC1=CCCCC1)c1cc2c(s1)CS(=O)(=O)C2`, the z-score is reported as -0.138. `CCCCCCOC(=O)Nc1ccc(S(=O)(=O)Nc2cccc([N+](=O)[O-])c2)cc1` showed a z-score of -0.217. Molecule `COC(=O)c1ccc(N2C(=O)CC(N3CCN(c4ccccc4)CC3)C2=O)cc1` (stereo not drawn) has a z-score of -0.165. For `N#CC1=C(SCc2ccccc2)NC(=O)CC1c1ccc(O)cc1` (stereo not drawn), the z-score was 0.918. With `O=C(NCc1ccco1)c1ccc(Oc2ccccc2)cc1` the z-score was -0.352. For `N#CC(c1ccc(Cl)cc1)c1nc2ccccc2nc1C(F)(F)F` (stereo not drawn), the z-score was -0.127. `Cc1cccc(C)c1NC(=O)CCN1C(=O)C2C3CCC(C3)C2C1=O` (stereo not drawn) showed a z-score of 0.139. `Cc1ccc(CC(=O)Nc2ccc(F)c([N+](=O)[O-])c2)cc1` showed a z-score of 0.357. For `O=C(COc1ccc(Cl)cc1Cl)N1CCCN(C(=O)COc2ccc(Cl)cc2Cl)CC1`, the z-score was 0.0165. `COc1ccc(C(CC(=O)c2ccccc2)S(=O)(=O)c2ccc(C)cc2)cc1` (stereo not drawn) gave a z-score of -0.141. Molecule `O=C(CC1Nc2ccccc2NC1=O)Nc1cc(Cl)cc(Cl)c1` (stereo not drawn) has a z-score of 0.051. `O=C(c1cccs1)N(Cc1cccc(Cl)c1)C1CCS(=O)(=O)C1` (stereo not drawn) gave a z-score of 0.343. With `CCCCNC(=O)COC(=O)CCC(=O)c1ccc(F)cc1` the z-score was 0.237. For `O=C(N/N=C\c1ccc2c(c1)OCO2)c1ccco1`, the z-score was -0.127. Work on `CCC(=O)Nc1cccc(-n2nnnc2SCC(=O)NCc2ccco2)c1` yielded a z-score of 0.799. `Cc1ccc(Nc2cc(-n3cccn3)ncn2)c(C)c1` gave a z-score of -0.35. `CCn1c(=O)c2cc(C(=O)N3CCOCC3)sc2c2ccccc21` showed a z-score of -0.0705. In the case of `CC(=O)c1c(C)[nH]c(C(=O)Nc2nc(-c3ccc(-c4ccccc4)cc3)cs2)c1C`, the z-score is reported as -0.0439. Work on `Cc1cc(C)cc(N(CC(=O)NCCSc2ccccn2)S(=O)(=O)c2ccccc2)c1` yielded a z-score of -0.188. For `CCOc1ccccc1N(C(=O)Nc1ccc(Cl)cc1)C1=NCCS1`, the z-score was -0.424. With `CCNC(=S)Nc1cc(OCC)c(NC(=O)c2ccco2)cc1OCC` the z-score was -0.249. `CCOc1ccc(NC(=O)C(C)Sc2nnnn2C)cc1` (stereo not drawn) gave a z-score of -0.23. `O=S(=O)(c1ccc(N2CCC(c3ccc(Cl)cc3)=N2)cc1)N(CCO)CCO` gave a z-score of -0.748. `c1ccc(-c2nccc(-c3ccc(-n4cnc5ccccc54)cc3)n2)cc1` gave a z-score of -0.341. With `CSCC[C@H](NC(=O)OC(C)(C)C)c1nnc(SCC(=O)N(C)C)o1` the z-score was -0.106. `COc1ccc(/C=N/N=C2\SCC(=O)N2c2c(C)n(C)n(-c3ccccc3)c2=O)cc1OC` was tested, and the z-score was -0.267. With `CC1CCN(c2ncnc3c2cnn3-c2ccccc2)CC1` the z-score was 0.0724. `COC(=O)CCC(=O)Nc1ccccc1C(=O)Nc1ccccc1` showed a z-score of -0.215. `Cc1cc(NCC2CCCO2)n2c(nc3ccccc32)c1C#N` (stereo not drawn) showed a z-score of -1.2. With `O=C(N/N=C/C=C/c1ccc(Br)cc1)C(O)c1ccccc1` (stereo not drawn) the z-score was 0.008. For `CCn1c(COc2ccc(Cl)cc2)nnc1SC1CCc2ccccc2C1=O` (stereo not drawn), the z-score was -0.443. `NS(=O)(=O)c1ccc(CCNC(=O)CSc2nc3ccsc3c(=O)n2C2CC2)cc1` showed a z-score of -0.632. `CC(=O)/C(=N\Nc1ccc(C)cc1)N1CCOCC1` gave a z-score of -0.102. In the case of `Cc1ccc(C)c(NS(=O)(=O)c2cc(C(=O)Nc3ccccc3-c3ccccc3)ccc2Cl)c1`, the z-score is reported as -0.546. For `COCCOC(=O)/C=C1/NC(=O)CS1`, the z-score was -0.352. For `CCCCNC(=O)C1CCN(c2nc(OC)nc(OC)n2)CC1`, the z-score was -0.214. With `COC(=O)CSCC(=O)Nc1cc2c(cc1C(C)=O)OCO2` the z-score was 0.0216. `CC1(C)Cc2ccccc2-c2nnc(-c3ccccn3)n21` gave a z-score of 0.413. For `COc1cccc(C=Nc2ccccc2C(=O)Nc2ccccc2)c1O`, the z-score was -0.223. With `CC(C)CN1C(=O)/C(=C/c2cccs2)NC1=S` the z-score was active: 15.8. With `CN1CC(c2ccccc2Cl)C2(COc3ccccc3C2=O)C12C(=O)Nc1ccccc12` (stereo not drawn) the z-score was -0.111. Molecule `COc1ccc(OCC(=O)Nc2ccccc2OC(F)F)cc1` has a z-score of 2.69. Molecule `CC(=O)c1cc(-c2ccccc2)n(CCC(=O)NCc2cccs2)c1C` has a z-score of 1.1. In the case of `Cc1ccc(O)c(CP(=O)(c2ccccc2)c2ccccc2)c1`, the z-score is reported as -0.324. With `Cc1cc(C)nc(NS(=O)(=O)c2ccc(N=Cc3c(C)[nH]n(-c4ccccc4)c3=O)cc2)n1` the z-score was -0.205. Work on `CN(C)S(=O)(=O)N1CCC(c2ccc(F)cc2)C(COc2ccc3c(c2)OCO3)C1` (stereo not drawn) yielded a z-score of 0.15. `CC1=C(C(=O)N2CCOCC2)C(c2ccsc2)C2=C(CCCC2=O)N1` (stereo not drawn) was tested, and the z-score was 0.844. For `COc1ccccc1NC(=O)Cc1nn(C)c(=O)c2ccccc12`, the z-score was -0.677. Work on `Cn1c2ccccc2c2c(C(=O)N3CCN(c4ccc(F)cc4)CC3)cn(C3CCCC3)c(=O)c21` yielded a z-score of -0.225. `COC(=O)c1cccc(S(=O)(=O)N2CCCC2)c1` showed a z-score of -0.113. Molecule `COc1ccc(/C(O)=C2/C(=O)C(=O)N(CCN(C)C)C2c2ccccc2)cc1Cl` (stereo not drawn) has a z-score of -0.968. `Cc1cc(C)n(CC(=O)N2c3ccccc3Sc3ccccc32)n1` gave a z-score of -0.397. With `C=CCNC(=S)N/N=C/c1ccc(OCc2ccccc2Cl)cc1` the z-score was -0.2. With `CSc1ccc(CN(C)CC(=O)Nc2ccc(C)cc2Br)cc1` the z-score was -0.173. With `O=C(C1CCN(Cc2ccc(F)cc2)CC1)N(CCc1ccccc1)Cc1ccccc1` the z-score was 0.621. `Cn1c(=O)n(C)c2cc([N+](=O)[O-])c(N3CCN(S(=O)(=O)c4ccc(C(C)(C)C)cc4)CC3)cc21` gave a z-score of 1.56. With `CN=CC1=C(O)c2ccccc2C1=O` the z-score was -0.357. With `CC(C)(C)c1nnc(NC(=O)Cc2ccccc2[N+](=O)[O-])s1` the z-score was -0.224. With `Cc1nc2ccc(NC(=O)NCCCO)cc2s1` the z-score was 0.21. `CCOc1ccc(C(=O)/C=C/c2ccc(SC)cc2)cc1` was tested, and the z-score was -0.132. In the case of `CCC(C)Oc1cccc(OCCCCN2C(=O)NC(C)(C)C2=O)c1` (stereo not drawn), the z-score is reported as 0.0393. Work on `CCOC(=O)c1ccc2ncc(C(=O)OCC)c(NCCN(C)C)c2c1` yielded a z-score of -0.571. Molecule `CCOc1ccc(NC(=O)NCCCn2c(C)nc3cc(C)c(C)cc32)cc1` has a z-score of -0.139. `COc1ccc(C(C(=O)NC2CCCC2)N(CCN2CCOCC2)C(=O)c2ccc(OC)c(OC)c2)cc1` (stereo not drawn) showed a z-score of 0.141. `COC(=O)c1cc(S(=O)(=O)N2CCOCC2)c(Cl)cc1N1CCOCC1` gave a z-score of 0.00512. `COc1ccc(O/C(=N\S(=O)(=O)c2ccccc2)c2ccccc2)cc1` gave a z-score of -0.216. `N/C(=N\OC(=O)CCc1ccccc1)c1ccc(Br)cc1` showed a z-score of 0.12. Molecule `CC(C)(C)c1ccc(OCCNC(=O)c2ncn[nH]2)cc1` has a z-score of -0.379. Work on `COc1ccc(C)c(S(=O)(=O)Nc2ccc(OCC(=O)O)cc2)c1` yielded a z-score of 0.2. `COc1ccc([N+](=O)[O-])cc1NC(=O)c1ccc(N(Cc2ccccc2C)S(C)(=O)=O)cc1` showed a z-score of -0.0462. In the case of `CCOC(=O)N1CCN(Cc2nc(-c3ccc(Cl)cc3)no2)CC1`, the z-score is reported as -0.222.
